# Results published in PubChem BioAssay (NCATS).
# “And” between values parts separate entries of the source, which are not always exact repeats. Equal values may be shown once. The shares of active, inactive and inconclusive entries below differ from those in the screen. For some of these results: A potency beside an inconclusive call is a rough fit, not a confirmed value. The source made the active and inactive calls. The call rests on the fitted dose curve; in most records, active means well fitted curve in the direction sought with a large enough effect; inconclusive means small, poorly fitted or top-dose-only effect, or another doubt; inactive means no such curve, though single readings can be large; an effect the other way counts as inactive or inconclusive.
# Tests used:
# [1] = Primary qHTS for inhibitors of nuclear receptor binding SET domain protein 2 (NSD2) in an isogenic RCH-ACV NSD2 p.E1099K mutant (9B) (AID 1645876); further: nearly all actives have a fitted effect of over 70% in size; further: potency means the concentration at half of the fitted maximal effect
# [2] = Primary qHTS for inhibitors of nuclear receptor binding SET domain protein 2 (NSD2) in an RCH-ACV wild type WT cells (2C) (AID 1645877); conditions: activity change, negative = cell killing: at 44.9 µM (top of the series); further: nearly all actives have a fitted effect of over 70% in size; further: potency means the concentration at half of the fitted maximal effect
# [3] = Primary fluorescence-based thiol-reactive (MSTI) qHTS assay for identification of artifact compounds. (AID 1845221);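 further: potency means the concentration at half of the fitted maximal effect; thiol-reactive compounds lower the probe fluorescence signal; nearly all actives have a fitted effect of over 65% in size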
# In short: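 Thiol-reactive compounds detected by quenching of 4 uM MSTI fluorescence (525/598 nm) after 1 h room-temperature dark incubation in PBS pH 7.4, 2% DMSO. qHTS titration; percent inhibition Hill-fitted against Acetyl-MSTI/MSTI controls.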
# [4] = biological target: Glutathione peroxidase 1 (Homo sapiens) (UniProt P07203); assay: Primary qHTS Assay for Inhibitors of Recombinant Selenoprotein Glutathione Peroxidase 1 (GPX1) (AID 1845191); conditions: activity, negative = inhibition: at 48.8 µM (top of the series); further: nearly all actives have a fitted effect of over 65% in size; further: potency means the concentration at half of the fitted maximal effect
# Chain of UniProt P07203 (P07203 whole entry, looked up): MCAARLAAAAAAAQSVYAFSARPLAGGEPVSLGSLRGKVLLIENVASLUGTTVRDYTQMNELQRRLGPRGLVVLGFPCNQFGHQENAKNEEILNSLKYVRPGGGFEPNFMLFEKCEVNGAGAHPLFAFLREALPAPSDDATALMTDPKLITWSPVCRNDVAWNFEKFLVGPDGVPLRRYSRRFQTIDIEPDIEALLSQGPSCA
# In short: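 GR-coupled assay: compounds preincubated 30 min at room temperature with GPX1, then reaction started with CHP; final 10 nM GPX1, 1 mM GSH, 0.5 mM CHP, 0.5 mM NADPH, 100 nM GR, 0.01% BSA, pH 7.5 Tris buffer. NADPH fluorescence (340/450 nm) read at 0 and 15 min.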
# [5] = biological target: Metallo-beta-lactamase type 2 (Klebsiella pneumoniae) (UniProt C7C422); assay: qHTS to identify inhibitors of the New Delhi Metallo-beta-lactamase (NDM): assay validation screen against the NCATS LOPAC Collection (AID 1794843);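 further: nitrocefin turnover by NDM-1 measured as 485 nm absorbance at plateau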
# Chain of UniProt C7C422 (C7C422 whole entry, looked up): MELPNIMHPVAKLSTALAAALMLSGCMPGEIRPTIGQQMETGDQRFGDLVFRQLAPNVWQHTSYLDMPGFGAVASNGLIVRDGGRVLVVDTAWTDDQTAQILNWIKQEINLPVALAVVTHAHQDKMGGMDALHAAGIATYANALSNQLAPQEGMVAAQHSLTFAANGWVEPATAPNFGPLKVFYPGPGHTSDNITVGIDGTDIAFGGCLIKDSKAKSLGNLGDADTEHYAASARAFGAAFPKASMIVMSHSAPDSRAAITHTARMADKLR
# In short: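 Enzyme 2 nM final, 50 mM HEPES pH 7.0, 1 uM ZnSO4, 0.01% Tween20; cpds in DMSO, preincub w/ enzyme; + nitrocefin (50 uM stock); A485 at plateau; no-enzyme column as blank.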
# [6] = biological target: Luciferin 4-monooxygenase (Photinus pyralis) (UniProt P08659); assay: Primary firefly luciferase (FLuc) qHTS assay for identification of artifact compounds. (AID 1845220); further: nearly all actives have a fitted effect of over 60% in size
# In short: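 D-luciferin and ATP (10 uM each, final) in Tris acetate buffer pH 7.6 were incubated with compounds for 15 min at room temperature. The reaction was started with 10 nM Photinus pyralis luciferase and luminescence read after 5 min. Percent inhibition was fitted to a 4-parameter Hill equation.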
# [7] = biological target: Rap guanine nucleotide exchange factor 3 (Homo sapiens) (UniProt O95398); assay: Confirmatory qHTS for antagonist of cAMP-regulated guanine nucleotide exchange factor 3 (EPAC1) (AID 1645880); further: nearly all actives have a fitted effect of over 55% in size
# Chain of UniProt O95398 (O95398 whole entry, looked up): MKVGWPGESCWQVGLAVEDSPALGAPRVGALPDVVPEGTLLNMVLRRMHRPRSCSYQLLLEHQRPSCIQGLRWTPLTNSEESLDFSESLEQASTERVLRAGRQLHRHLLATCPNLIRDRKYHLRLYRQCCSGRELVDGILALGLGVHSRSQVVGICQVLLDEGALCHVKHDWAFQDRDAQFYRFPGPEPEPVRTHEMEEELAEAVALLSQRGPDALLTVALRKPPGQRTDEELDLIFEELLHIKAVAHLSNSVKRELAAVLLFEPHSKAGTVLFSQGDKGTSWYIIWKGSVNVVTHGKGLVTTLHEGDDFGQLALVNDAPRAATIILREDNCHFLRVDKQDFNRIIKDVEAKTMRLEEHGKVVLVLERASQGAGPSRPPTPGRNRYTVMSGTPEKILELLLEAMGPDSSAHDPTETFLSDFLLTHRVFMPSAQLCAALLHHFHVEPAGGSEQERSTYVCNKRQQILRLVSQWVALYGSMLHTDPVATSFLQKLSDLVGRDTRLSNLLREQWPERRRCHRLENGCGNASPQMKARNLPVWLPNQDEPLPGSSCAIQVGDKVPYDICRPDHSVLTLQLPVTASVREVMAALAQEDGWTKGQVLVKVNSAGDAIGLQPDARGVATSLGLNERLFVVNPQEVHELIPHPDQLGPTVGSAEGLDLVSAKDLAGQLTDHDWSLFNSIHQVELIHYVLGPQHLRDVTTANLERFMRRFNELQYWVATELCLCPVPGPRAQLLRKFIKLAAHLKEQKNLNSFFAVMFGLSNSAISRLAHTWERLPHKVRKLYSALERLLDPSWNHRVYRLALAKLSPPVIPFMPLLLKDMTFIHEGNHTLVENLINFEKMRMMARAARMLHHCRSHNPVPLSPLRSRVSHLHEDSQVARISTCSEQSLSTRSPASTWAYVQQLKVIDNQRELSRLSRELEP
# In short: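 Nucleotide exchange uses 100 nM EPAC1, 250 nM RAP1B-BODIPY-GDP and 50 uM GDP, with compounds in a concentration-titration series. After 5 min at room temperature, fluorescence (480 nm ex/540 nm em) is read every 5 min for 30 min. Data are normalized to control ATA and DMSO.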
# [8] = Viability counterscreen for antagonist of constitutive androstane receptor (CAR) against the NCATS DSHEA and TCM libraries (AID 1794837);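 further: potency means the concentration at half of the fitted maximal effect; compound exposure lasted 24 h before viability reading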
# In short: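 Cell viability, CellTiter-Fluor, Ex/Em 405/540 nm, 1 h at 37C. HepG2-CYP2B6-hCAR, 2,500 cells/well; cpds + CITCO 48 uM final (antagonist mode), 24 h, 37C/5% CO2.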
# [9] = Viability counterscreen for agonist of constitutive androstane receptor (CAR) against the NCATS DSHEA and TCM libraries (AID 1794838); conditions: HepG2 cell viability counterscreen, CAR agonist assay; co-treated with 0.75 µM CAR antagonist; further: potency means the concentration at half of the fitted maximal effect
# In short: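 Viability by CellTiter-Fluor fluorescence, 405/540 nm, after 1 h at 37C. HepG2-CYP2B6-hCAR cells were exposed 24 h to test substances in presence of 0.75 uM PK11195 (final).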
# [10] = biological target: Nuclear receptor subfamily 1 group I member 3 (Homo sapiens) (UniProt Q14994); assay: Primary qHTS for agonist of constitutive androstane receptor (CAR) against the NCATS DSHEA and TCM libraries (AID 1794839); further: potency means the concentration at half of the fitted maximal effect
# Chain of UniProt Q14994 (Q14994 whole entry, looked up): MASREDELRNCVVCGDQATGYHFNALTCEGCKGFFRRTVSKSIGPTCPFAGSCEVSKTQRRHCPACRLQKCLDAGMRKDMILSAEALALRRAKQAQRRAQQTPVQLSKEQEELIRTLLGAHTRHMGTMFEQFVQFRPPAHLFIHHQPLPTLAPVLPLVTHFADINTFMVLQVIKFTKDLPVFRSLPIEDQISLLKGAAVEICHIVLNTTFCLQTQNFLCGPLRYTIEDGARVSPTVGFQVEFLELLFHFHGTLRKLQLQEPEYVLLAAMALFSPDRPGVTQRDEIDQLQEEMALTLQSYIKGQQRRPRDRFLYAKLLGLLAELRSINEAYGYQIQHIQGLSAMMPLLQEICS
# In short: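 Luminescence from ONE-Glo luciferase was the agonist read-out in HepG2-CYP2B6-hCAR cells exposed 24 h to test substances. Wells also held the CAR antagonist PK11195 at 0.75 µM final. Viability was by CellTiter-Fluor fluorescence.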
# [11] = HepG2 viability counterscreen (readout 1: protease activity) against the NCATS DSHEA and TCM libraries (AID 1794841);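 further: cells exposed to compounds for about 24 h before the protease read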; further: potency means the concentration at half of the fitted maximal effect
# In short: (§1)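 1,000 HepG2 cells/well, 4 h attach; compounds ~24 h, 37C/5% CO2. Readout 1: GF-AFC 25 uM final, 30 min, fluorescence 380/510 nm. Readout 2: CellTiter-Glo, 30 min RT, luminescence.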
# [12] = biological target: Phospholipid hydroperoxide glutathione peroxidase GPX4 (Homo sapiens) (UniProt P36969); assay: Primary qHTS Assay for Inhibitors of Recombinant Selenoprotein Glutathione Peroxidase 4 (GPX4) (AID 1845192); further: potency means the concentration at half of the fitted maximal effect; nearly all actives have a fitted effect of over 65% in size
# Chain of UniProt P36969 (P36969 whole entry, looked up): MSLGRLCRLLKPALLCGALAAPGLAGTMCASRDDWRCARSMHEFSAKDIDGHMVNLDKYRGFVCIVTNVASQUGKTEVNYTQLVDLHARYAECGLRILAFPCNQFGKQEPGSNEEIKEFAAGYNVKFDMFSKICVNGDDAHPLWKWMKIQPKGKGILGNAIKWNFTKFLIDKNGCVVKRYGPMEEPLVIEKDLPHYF
# In short: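 GR-coupled assay: recombinant GPX4 preincubated 30 min with compound at room temperature; final 200 nM GPX4, 1 mM GSH, 0.5 mM cumene hydroperoxide, 0.5 mM NADPH, 100 nM GR, 0.01% BSA, pH 7.5 Tris. NADPH fluorescence (340/450 nm) read at 0 and 15 min.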
# [13] = HepG2 viability counterscreen (readout 2: ATP content) against the NCATS DSHEA and TCM libraries (AID 1794840); conditions: ATP content luminescence; further: potency means the concentration at half of the fitted maximal effect
# In short: as §1
# Tags describe the fitted curve by direction and shape.
structure (smiles),measurement,setting,value
CCc1cncnc1N1CCN(Cc2nc3ccc(C(F)(F)F)cc3[nH]2)CC1,Potency,[1],"inconclusive: 16.6 µM [inhibitor, partial curve]"
same,Potency,[2],"inconclusive: 16.6 µM [inhibitor, partial curve]"
CC(C)(C)c1cc(NC(=O)Nc2ccc(-c3cn4c(n3)sc3cc(OCCN5CCOCC5)ccc34)cc2)no1,Potency,[1],"inconclusive: 2.05 µM [inhibitor, full curve]"
same,Potency,[2],"inconclusive: 3.65 µM [inhibitor, partial curve]"
same,Potency,[3],"inconclusive: 9.47 µM [inhibitor, partial curve, poor fit]"
Cn1c(=O)c2c(ncn2CC(O)CO)n(C)c1=O (configuration not stated),Potency,[1],"inconclusive: 33.5 µM [inhibitor, single point]"
same,Potency,[2],"inconclusive: 29.9 µM [inhibitor, single point] and inactive"
N#CC(c1ccc(Cl)cc1)c1c(Cl)cc(-n2ncc(=O)[nH]c2=O)cc1Cl (configuration not stated),Potency,[1],"inconclusive: 33.2 µM [inhibitor, single point]"
same,Potency,[4],"inconclusive: 2.9 µM [inhibitor, partial curve, poor fit]"
CC1=C(C(=O)Nc2cc3cn[nH]c3cc2F)C(c2ccc(C(F)(F)F)cc2)CC(=O)N1 (configuration not stated),Potency,[1],"inconclusive: 16.6 µM [inhibitor, partial curve] and inconclusive: 16.3 µM [inhibitor, single point]"
same,Potency,[2],"inconclusive: 13.2 µM [inhibitor, partial curve] and inconclusive: 23 µM [inhibitor, partial curve, poor fit]"
CCN(CC)CCOc1ccc(Nc2ncc3cc(-c4c(Cl)cccc4Cl)c(=O)n(C)c3n2)cc1,Potency,[1],active: 0.417 µM
same,Potency,[5],inactive
CN(c1nccc(=O)[nH]1)C1CCN(c2nc3ccccc3n2Cc2ccc(F)cc2)CC1,Potency,[1],"inconclusive: 29.9 µM [inhibitor, single point] and inconclusive: 18.3 µM [inhibitor, single point]"
same,Potency,[2],"inconclusive: 29.9 µM [inhibitor, single point] and inconclusive: 16.3 µM [inhibitor, single point]"
same,Potency,[6],inactive
Cc1cc2nc3c(=O)[nH]c(=O)nc-3n(CC(O)C(O)C(O)CO)c2cc1C (configuration not stated),Potency,[1],inactive
same,Potency,[2],"inconclusive: 26.3 µM [inhibitor, single point]"
same,Potency,[7],inactive
same,Potency,[8],"inconclusive: 31.6 µM [rising, partial curve]"
same,Potency,[9],active: 25.1 µM
same,Potency,[10],"inconclusive: 3.55 µM [activator, full curve]"
same,Potency,[11],inactive
same,Potency,[12],"inconclusive: 7.18 µM [inhibitor, single point]"
CN(C)CCCC1(c2ccc(F)cc2)OCc2cc(C#N)ccc21 (configuration not stated),Potency,[1],"inconclusive: 23 µM [inhibitor, partial curve]"
same,Potency,[2],"inconclusive: 25.8 µM [inhibitor, single point]"
same,Potency,[4],inactive
C[C@H](c1ccc(F)cc1CCCC(=O)O)N(c1cc(F)ccc1F)S(=O)(=O)c1ccc(Cl)cc1,Potency,[1],"inconclusive: 16.3 µM [inhibitor, partial curve, poor fit] and inconclusive: 20.9 µM [inhibitor, single point]"
same,Potency,[2],"inconclusive: 29 µM [inhibitor, partial curve, poor fit] and inconclusive: 23.5 µM [inhibitor, single point]"
same,Potency,[12],"inconclusive: 11.4 µM [inhibitor, partial curve]"
OC[C@H]1O[C@@H](OCCc2ccc(O)cc2)[C@H](O)[C@@H](O)[C@H]1O,Potency,[1],"inconclusive: 29.9 µM [inhibitor, single point]"
same,Potency,[2],"inconclusive: 29.9 µM [inhibitor, single point]"
same,Potency,[13],"inconclusive: 28.2 µM [cytotoxic, single point]"
same,Potency,[11],"inconclusive: 10 µM [inhibitor, partial curve, poor fit]"
CCN1CCN(c2ccc(Nc3cc(N(C)C(=O)Nc4c(Cl)c(OC)cc(OC)c4Cl)ncn3)cc2)CC1,Potency,[1],"inconclusive: 25.8 µM [inhibitor, partial curve, poor fit]"
same,Potency,[2],"inconclusive: 25.8 µM [inhibitor, partial curve, poor fit]"
same,Potency,[3],"inconclusive: 8.44 µM [inhibitor, partial curve]"
